“And” between values parts separate entries of the source, which are not always exact repeats. Equal values may be shown once. Hit rate of the full screen: of about 110,000 compounds, about 230 (0.21%) showed an effect of 50% or more. Some of the results follow.
Biological target: DPAP1 (Plasmodium falciparum, UniProt Q8IIJ9)
Experiment: primary screen, percent inhibition; read by cleavage of a fluorogenic dipeptide substrate; higher = more effect of the substance
Set-up: species or system P. falciparum D10 trophozoite lysates; single well
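Also: 30 min substrate incubation versus DMSO and 10 µM JCP410 controls.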

Sequence of DPAP1 (Q8IIJ9 whole entry, looked up): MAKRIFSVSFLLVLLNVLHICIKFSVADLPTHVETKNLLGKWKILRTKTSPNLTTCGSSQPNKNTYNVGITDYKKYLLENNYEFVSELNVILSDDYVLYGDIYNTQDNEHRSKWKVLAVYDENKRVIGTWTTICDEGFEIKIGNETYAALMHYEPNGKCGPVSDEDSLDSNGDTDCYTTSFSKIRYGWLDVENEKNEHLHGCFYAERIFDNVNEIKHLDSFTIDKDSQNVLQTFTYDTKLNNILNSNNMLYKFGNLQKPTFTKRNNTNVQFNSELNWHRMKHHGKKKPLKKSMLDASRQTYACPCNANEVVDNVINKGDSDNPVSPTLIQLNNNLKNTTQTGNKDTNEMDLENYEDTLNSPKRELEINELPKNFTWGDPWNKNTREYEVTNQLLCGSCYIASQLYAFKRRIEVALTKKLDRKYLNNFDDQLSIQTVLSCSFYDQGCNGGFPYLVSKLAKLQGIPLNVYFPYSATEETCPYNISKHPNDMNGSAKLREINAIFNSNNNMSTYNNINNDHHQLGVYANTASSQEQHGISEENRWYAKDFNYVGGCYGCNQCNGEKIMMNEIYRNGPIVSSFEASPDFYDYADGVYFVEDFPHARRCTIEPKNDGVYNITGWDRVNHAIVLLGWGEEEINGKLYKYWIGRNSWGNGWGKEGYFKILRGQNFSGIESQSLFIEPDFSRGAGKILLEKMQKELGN

SMILES | % Inhibition @ 10 uM
COc1cc(OC)cc(C(=O)N2CCN(Cc3ccccc3OC)CC2)c1 | -3.58%
Cc1nnc(SCC(=O)NC(C)c2ccccc2)nc1O (stereo not drawn) | 8.01%
O=S(=O)(c1ccc(S(=O)(=O)C(F)(F)F)cc1)C(F)(F)F | -4.08%
O=C(CN(Cc1ccccc1)S(=O)(=O)c1ccc(Br)cc1)N1CCOCC1 | 1.15%
Cc1ccc(-c2nc3c(c(SCC(N)=O)n2)Cc2cccc(C)c2O3)cc1 | -1.21%
CC(C)CC(=O)N1CCN(Cc2cccnc2)CC1 | -9.24%
C/C(=N\[C@@H](CSCc1ccccc1OC(F)F)C(=O)NCC#N)NS(=O)(=O)c1ccccc1 | 4.54%
CC1CC(Nc2ccccc2)c2ccccc2N1C(=O)c1cccs1 (stereo not drawn) | -3.79%
COCCNC(=O)c1nn2c(c1Cl)NC(c1ccccc1)CC2C(F)(F)F (stereo not drawn) | -4.68%
CC(C)(C)SCCNC(=O)CN1C(=O)c2ccccc2S1(=O)=O | 1.59%
O=C1NC(=S)N(c2ccc(Cl)cc2)C(=O)/C1=C/c1ccc(F)cc1 | 4.98%
C=CCn1c(SCC(=O)N2CCOCC2)nc2scc(-c3ccccc3Cl)c2c1=O | -1.06%
Cc1ccc(C(=O)C2=C(O)C(=O)N(c3ncccn3)C2c2cccc(Cl)c2)o1 (stereo not drawn) | -19.3%
Clc1nc(Nc2ccccc2)nc(Nc2ccccc2)n1 | 1.8%
Cc1cccc(CN2C[C@@H]3C[C@H](C2)c2cccc(=O)n2C3)c1 | -6.22%
Cc1cc(C)nc(N2CCN(C(=O)CSc3nc4ccccc4nc3N3CCCCC3)CC2)n1 | 0.032%
CC(NC(=O)c1csc2ccccc12)C1CC2CCC1C2 (stereo not drawn) | 3.65%
CCO/C(O)=C1\C(C)=Nc2nnnn2C1c1ccc(Br)cc1 (stereo not drawn) | -5.19%
CCc1nc2c(c(N)c1C)CCN2C | 1.88%
COc1cc(OC)c(-c2cc(C(=O)O)ccc2OC)c(OC)c1 | -6.49%
CC1=CC(C)(C)N(S(=O)(=O)c2ccc(C)cc2)c2ccc(C)cc21 | 3.01%

SMILES | % Inhibition @ 10 uM
Cc1ccc(-c2cc(C(F)(F)F)n3nc(C(=O)N4CCN5CCCC5C4)cc3n2)cc1 (stereo not drawn) | -1.96%
Cc1nnn(C23CC4CC(CC(C(=O)N5CCN(C6CCCCC6)CC5)(C4)C2)C3)n1 | 6.37%
CCCOc1ccc(S(=O)(=O)Nc2ccccn2)c2ccccc12 | -3.33%
CC1CC(C)CN(C(=O)Cn2cc(C=O)c3ccccc32)C1 (stereo not drawn) | 0.51%
Cc1nc2nc(CCc3ccccc3)nn2c(O)c1Cc1ccccc1 | 1%
O=C(Nc1c(F)c(F)nc(N2CCCCC2)c1F)c1ccccc1C(=O)N1CCCCC1 | -2.73%
O=C1NC2(CCCCC2)Cc2ccccc21 | -2.35%
O=C(NCc1ccco1)c1nc(-c2cccc(F)c2)n2c1CCCCC2 | -6.87%
COc1ccc(S(=O)(=O)NCc2ccc(C(=O)N3CCN(C)CC3)cc2)cc1 | -1.54%
Cc1cc(Cl)ccc1OCC(=O)NCc1cccs1 | -3.24%
N=c1c(S(=O)(=O)c2ccc(Cl)cc2)cc2c(=O)n3ccccc3nc2n1Cc1ccccc1 | 1.08%
N#Cc1c(-c2ccccc2)cc(-c2cc(Br)ccc2O)nc1O | -1.07%
CC(C)(C)/C(O)=C/c1nc2ccc(C(=O)O)cc2nc1/C=C(\O)C(C)(C)C | -1.07% and 0.815%
Cc1ccnc(NC(=O)C2CCN(S(=O)(=O)c3c(C)noc3/C=C/c3cccs3)CC2)c1 | -4.96%
Cc1ccc2c(CNCc3ccccc3F)c(C(=O)O)n(Cc3ccccc3C)c2c1 | -1.45%
Cc1ccc(NC(=O)Nc2ccc(C)c(F)c2)cc1 | 5.37%
CCOC(=O)c1nnn(-c2ccccc2OCC)c1C(=O)OCC | -1.58%
Cc1cc2c(n1-c1ccc(C(=O)NCc3ccco3)cc1)CCCC2 | -4.16%
CN(CCCc1ccco1)S(=O)(=O)c1csc(C(N)=O)c1 | -3.98%
Cc1ccc(C2CC(C(F)(F)F)n3ncc(C(=O)NCc4c(C)nn(C)c4C)c3N2)cc1 (stereo not drawn) | 2.32%
CCOC(=O)c1c(NC(=O)c2ccccc2)sc(C(=O)N2CCCCC2)c1C | -2.87%

SMILES | % Inhibition @ 10 uM
CCOc1ccccc1N1CCN(C(=O)c2ccc3c(c2)OCO3)CC1 | 1.4%
O=C(O)CCC(=O)Nc1ccccc1C(=O)NCCc1ccccc1 | -0.872%
Cc1nnc(NC(=O)CSc2ccc3nnc(CCNS(=O)(=O)c4ccccc4)n3n2)s1 | -2.26%
O=c1c2ccccc2nc(-c2ccccc2)n1CCCn1ccnc1 | 2.76%
Cc1ccccc1C1C2=C(O)c3ccccc3C2=Nc2c1c(=O)[nH]c(=O)n2C (stereo not drawn) | 5.65%
CCOc1cccc(=O)c2c(C)n(-c3ccc(C)c(C)c3)c(C)c12 | -0.711%
Cc1nsc2ccc(Cl)cc12 | 55%
CCN(CC)CCCCOc1cccc(C)c1 | 1.87%
S=C(Nc1ccccc1)N1CCCCCC1 | 2.62%
Clc1ccc(CNC23CN4CN(CN(C4)C2)C3)c(Cl)c1 | -0.756%
O=C(Cc1ccc(F)cc1)N1CCC(c2nc(O)c3nnn(Cc4ccsc4)c3n2)CC1 | 5.35%
COc1ccc(CN2CCCCC2CO)c(OC)c1 (stereo not drawn) | 3.65%
COCc1cc(O)n2nc(SCc3ccccc3)nc2n1 | 2.31%
COc1cc(OC)cc(C(=O)N2CCN(C(=O)c3ccccc3F)CC2)c1 | 4.55%
Fc1ccc(N2CCN(Cc3ccccc3Br)CC2)cc1 | -6.47%
COc1cc(CN2CCN(Cc3ccncc3)CC2)cc(OC)c1O | 0.131%
COc1ccc(C(=O)/C=C/c2ccc(OC)c(CN3CCOCC3)c2)cc1 | 1.52%
CCOC(=O)c1c(C(=O)OCC)c(C)n(CCc2c[nH]c3ccccc23)c1C | 0.238%
COc1ccc(C2=NN(S(C)(=O)=O)C(c3cc4ccc(OC)cc4nc3Cl)C2)cc1 (stereo not drawn) | -0.85%
CN1C(=O)C2Cc3c([nH]c4ccccc34)C(c3ccc([N+](=O)[O-])cc3)N2C1=S (stereo not drawn) | -1.29%
COc1cc(OC)cc(C(=O)N2CCN(C3CCC(c4ccccc4)CC3)CC2)c1 (stereo not drawn) | -3.37%
